System: CD36
Test: Surface expression of CD36 in THP-1 cells by flow cytometry
Conditions: THP-1 during macrophage differentiation, three days; FIG. 14

Row | SMILES | expression of CD36, a marker of PPAR-γ activation
1 | CCc1cccc2c3c([nH]c12)C(CC)(CC(=O)O)OCC3 (centres unmarked) [Etodolac S] | caused the expression of CD36
2 | CCc1cccc2c3c([nH]c12)[C@@](CC)(CC(=O)O)OCC3 [Etodolac R] | caused the expression of CD36
